PubChem BioAssay AID624296 (National Center for Advancing Translational Sciences (NCATS), 2012)
Several values for one entry are separate records, joined by “and”; a condition that tells them apart may be missing. Equal values may be shown once. About 9,900 (2.8%) of roughly 350,000 compounds were called active. The shares of active, inactive and inconclusive entries below differ from those in the screen. Calls come from the whole dose curve; as a rule, active = well fitted activation curve with a large enough effect; inconclusive = small, poorly fitted or top-dose-only effect; inactive = no such curve, though single readings can be large or run the other way. Where the call is inconclusive, the potency comes from a doubtful curve fit.

assay: A quantitative high throughput screen for small molecules that induce DNA re-replication in MCF 10a normal breast cells.; note: nearly all actives have a fitted effect of over 50% in size; conditions: MCF 10A DNA re-replication, Hoechst nuclear intensity, 48 h; series mostly up to 46.1 µM
Potency is the fitted concentration of half-maximal effect; tags give direction and shape of the fitted curve.

SMILES | Potency
CCC1CCCCN1S(=O)(=O)c1ccc(S(=O)(=O)N2CCN(S(=O)(=O)CC)CC2)cc1 (stereo not given) | inconclusive: 29.1 µM [activator, single point]
OCc1cc(C(O)CNCCCCCCOCCCCc2ccccc2)ccc1O (stereo not given) | inconclusive: 29.9 µM [activator, partial curve] and inconclusive: 14.6 µM [activator, partial curve, poor fit]
COc1cc(/C=N/NC(=O)C(=O)/C=C2\NC(C)(C)Cc3ccccc32)ccc1O | inconclusive: 20.6 µM [activator, single point]
Cc1ccc(-c2onc3ccc(C=O)cc23)cc1 | inconclusive: 18.4 µM [activator, single point]
NC(=O)C1CCCN(C(=O)c2cccc(NC(=O)c3cccs3)c2)C1 (stereo not given) | inactive
O=C(NC(c1cccnc1)C(F)(F)F)c1cc(COc2ccc3c(c2)CCCC3)on1 (stereo not given) | inconclusive: 23.1 µM [activator, partial curve, poor fit]
COC(=O)NCC(c1cccnc1)N1CCN(c2ccccc2)CC1 (stereo not given) | inactive
COCCNC(=O)C12CC3CC(C1)CC(c1ccccc1)(C3)C2 | inactive
CCN1C(=O)[C@H]2[C@@H](c3ccc(SC4CCCCC4)c(OC)c3)N3CCCC[C@@]3(C(=O)OC)[C@H]2C1=O | inconclusive: 0.0046 µM [activator, full curve, poor fit]
Cc1ccc(S(=O)(=O)Oc2cccc([N+](=O)[O-])c2)cc1 | inconclusive: 29.1 µM [activator, single point]
Cc1cc(C)nc(NC(N)=NCCc2ccccc2)n1 | active: 18.4 µM
CCNC(=S)N(CCc1c(C)[nH]c2ccc(Cl)cc12)Cc1cccnc1 | inconclusive: 16.4 µM [activator, partial curve, poor fit]
CCCCC(=O)Nc1nn(CC(C)C)c2nc3ccccc3cc12 | inconclusive: 25.9 µM [activator, single point]
COc1ccccc1CCC(=O)NNC(=O)c1cccs1 | inactive
COc1ccc(S(=O)(=O)N2CCOCC2)cc1NC(=O)c1c(-c2ccccc2)noc1C | inconclusive: 18.4 µM [activator, partial curve, poor fit]
CCOC(=O)N1C/C(=C\c2ccccc2)C(=O)/C(=C/c2ccccc2)C1 | inconclusive: 1.84 µM [activator, full curve, poor fit]
O=C1CSC(=S)N1/N=C/c1cc(Br)c(O)c(Br)c1 | inconclusive: 29.1 µM [activator, single point]
CCN(CC)S(=O)(=O)c1ccc(C)c(NC(=O)CN2CCN(C)CC2)c1 | inactive
CC(=O)c1c(C)[nH]c(C(=O)OCC(=O)Nc2sc3c(c2C#N)CCC(C)C3)c1C (stereo not given) | inconclusive: 18.4 µM [activator, partial curve, poor fit]
CC1CCCN(CCOCCOc2ccccc2-c2ccccc2)C1 (stereo not given) | inconclusive: 0.13 µM [activator, full curve, poor fit]
COc1cc(/C=C2\SC(=S)N(NS(=O)(=O)c3ccccc3)C2=O)cc(OC)c1OC | inconclusive: 29.1 µM [activator, partial curve, poor fit]
O=C(CSCc1cccc(Cl)c1)N1CCN(Cc2ccc3c(c2)OCO3)CC1 | inconclusive: 3.16 µM [activator, single point]
CN1CCN(S(=O)(=O)c2cccc(C(=O)NCCC3=CCCCC3)c2)CC1 | inconclusive: 20.6 µM [activator, single point]
CCCOC(=O)c1ccc(NC(=O)CCOc2ccccc2)cc1 | inconclusive: 20.6 µM [activator, single point]

SMILES | Potency
C=CCN1CCN(C(c2ccccc2)c2nnnn2CCC(C)C)CC1 (stereo not given) | inactive
COCCc1nc2ccc(C(=O)N(C)Cc3cccc(-n4nc(C)cc4C)c3)cc2o1 | inactive
Cn1c(=O)cc2c3c(c(N4CCCCC4)ccc31)C(=O)c1ccccc1-2 | inactive
CCOC(=O)C(O)(CC(=O)Nc1ccc(Cl)cc1Cl)C(F)(F)F (stereo not given) | inconclusive: 6.51 µM [activator, single point]
Cc1nn(Cc2c(Cl)cccc2Cl)c(C)c1NC(=O)c1cn(-c2ccccc2)nc1-c1ccccc1 | active: 4.47 µM
Cn1c(Cc2ccccc2)nnc1SCC(=O)N1CCN(c2ccccc2)CC1 | inconclusive: 35.5 µM [activator, partial curve, poor fit]
COc1ccccc1C(=O)NC(C)c1cccc2ccccc12 (stereo not given) | inconclusive: 18.4 µM [activator, single point]
CNC(=S)N(CCc1c(C)[nH]c2ccc(C)cc12)Cc1cccs1 | active: 3.66 µM
Cc1ccc2c(c1)N(C(=O)CCC(=O)NCc1cccc(Cl)c1)CC(C)O2 (stereo not given) | inactive
C[C@H]1COC(=O)[C@H](CC(=O)OC(C)(C)C)C/C=C\C[C@@H](CC(=O)NCCO)C(=O)N1 | inconclusive: 6.51 µM [activator, single point]
O=C(c1ccc(Cl)cc1)N1CCN(c2ccnc3cc(Cl)ccc23)CC1 | inactive
COc1cc(C2CC(=O)N(c3ccc(C)cc3)C(=O)C2)cc(OC)c1OC | active: 6.51 µM
CCOC(=O)CSc1nc2ccc(NC(C)=O)cc2s1 | inactive
O=C(COc1cc2oc(=O)c3c(c2cc1Cl)CCC3)NCCCn1ccnc1 | active: 23.1 µM
CCNC(=S)NNC(=O)c1cc(-c2cccc(C)c2)nc2ccccc12 | inactive
Cc1cc(C(=O)NC2CCCN(Cc3ccc(Cl)cc3)C2)c(C)o1 (stereo not given) | inconclusive: 23.1 µM [activator, partial curve, poor fit]
COc1ccc(S(=O)(=O)NCC2CCCN(Cc3ccccc3Cl)C2)cc1 (stereo not given) | active: 23.1 µM
Cc1[nH]n(-c2ccccc2)c(=O)c1/C=N/NC(=O)c1ccoc1C | inconclusive: 18.4 µM [activator, single point]
CCc1ccc(C(=O)NC(=S)Nc2ccc3c(c2)OCCO3)cc1 | inconclusive: 13 µM [activator, partial curve]
O=C1/C(=C\c2ccccc2)CN(C(=O)CCN2CCCCC2)C/C1=C/c1ccccc1 | inconclusive: 1.84 µM [activator, partial curve, poor fit]
CCCCOc1ccc(Nc2nc(C)cc(C)c2C#N)cc1 | inconclusive: 29.1 µM [activator, single point]
CN1CC(=O)N(CC(=O)NC2CCCCC2)C1=O | inactive
CN(c1ccccc1)S(=O)(=O)c1cccc(NC(=O)CSc2nnc(N)s2)c1 | inactive
COc1ccccc1NC(=O)OCC#CCOC(=O)Nc1ccccc1OC | inconclusive: 23.1 µM [activator, partial curve, poor fit]

SMILES | Potency
CC1CCN(C2CCN(C(=O)c3ccccc3F)CC2)CC1 | inconclusive: 32.6 µM [activator, partial curve, poor fit]
CN1CCN(C(=O)CCCN2C(=O)/C(=C/c3ccccc3)SC2=S)CC1 | inconclusive: 11.6 µM [activator, partial curve, poor fit]
CCCCCCCN1C2=NCCCN2c2ccccc21 | inconclusive: 18.4 µM [activator, single point]
O=S(=O)(c1ccc(Cl)cc1)N1CCC(O)(CN2CCN(Cc3ccccc3)CC2)CC1 | active: 20 µM
Cc1ccc(-c2nsc(SCC(=O)Nc3ccc4c(c3)OCO4)n2)cc1 | inconclusive: 23.1 µM [activator, partial curve, poor fit]
CC(=O)Nc1ccc(/C(C)=N/NC(=O)c2ccccc2Cl)cc1 | inconclusive: 25.9 µM [activator, single point]
Cc1ccc(C(=O)OCC(=O)NCc2ccco2)s1 | inconclusive: 20.6 µM [activator, single point]
Cn1c(N)c(-c2nc3cccnc3n2C)sc1=S | inactive
CCOc1ccc(Cn2c(=O)sc3ccccc32)cc1OC | inconclusive: 29.1 µM [activator, partial curve, poor fit]
CCOC(=O)C1CCCN(C(=O)c2ccc(Cn3c(=S)[nH]c4cc(C(=O)OC)ccc4c3=O)cc2)C1 (stereo not given) | active: 16.4 µM
Cc1cccc(C(=O)Nc2ccccc2NC(=O)c2cccc(C)c2)c1 | inconclusive: 16.4 µM [activator, partial curve, poor fit]
CC1CCCc2sc3nc(NCc4ccco4)n4ncnc4c3c21 (stereo not given) | inconclusive: 29.1 µM [activator, single point]
COc1ccc(/C=N/NC(=O)c2ccco2)cc1OCc1ccccc1 | inconclusive: 18.4 µM [activator, single point]
COc1cc2c(cc1OC)CN(C(=O)c1ccc(OC)c([N+](=O)[O-])c1)CC2 | inactive
Oc1ccc2ccccc2c1CNc1ccccc1 | inconclusive: 29.1 µM [activator, single point]
Cc1ccc(C(=O)NCCNC(=O)c2ccccc2)cc1 | inactive
COc1cc(C2Nc3ccc4ncccc4c3C3=C2C(=O)CCC3)cc(OC)c1OC (stereo not given) | inactive
Cc1ccccc1NC(=O)c1cccc(S(=O)(=O)Nc2cccc(C(=O)O)c2)c1 | inconclusive: 3.66 µM [activator, single point]
COc1ccc(C(=O)Nc2nc3ccc4nc(C)sc4c3s2)cc1 | inactive
Cc1ccsc1/C=N/Nc1nc(=O)[nH]nc1C | inactive
Cc1cc(CSCc2ccc(Cl)cc2)no1 | inconclusive: 2.91 µM [activator, single point]
OC(c1cc(C(F)(F)F)nc2c(Cl)cc(Cl)cc12)C1CCCCN1 (stereo not given) | inconclusive: 29.1 µM [activator, partial curve, poor fit]
